Source: the supplement of paper PMC8813932
Counter-ions that a name gives are not always drawn. ± gives the standard deviation of the averaged measurements. The list shows a part of the results. Most values come without repeats; read them as rough.

How the values were obtained:
Assay in all cases: log2 surviving fraction relative to plate median (drug vs vehicle, or drug+dl922-947 vs dl922-947 alone); ovarian cancer lines: OVCAR4 is platinum-sensitive while Ov4Cis resists cisplatin and Ov4Carbo carboplatin; higher = more cell survival
Conditions in all cases: compound concentration: 10 uM, 192 h
OVCAR4 = tested on: OVCAR4
Ov4Carbo = tested on: Ov4Carbo
Ov4Cis = tested on: Ov4Cis
[1] = dl922-947 oncolytic adenovirus co-treatment: MOI 10
[2] = dl922-947 oncolytic adenovirus co-treatment: none

SMILES | log2 surviving fraction (OVCAR4; [1]) | log2 surviving fraction (OVCAR4; [2]) | log2 surviving fraction (Ov4Carbo; [1]) | log2 surviving fraction (Ov4Carbo; [2]) | log2 surviving fraction (Ov4Cis; [1]) | log2 surviving fraction (Ov4Cis; [2])
CC(=O)O[C@@]12CO[C@@H]1C[C@H](O)[C@@]1(C)C(=O)[C@H](O)C3=C(C)[C@@H](OC(=O)[C@H](O)[C@@H](NC(=O)OC(C)(C)C)c4ccccc4)C[C@@](O)([C@@H](OC(=O)c4ccccc4)[C@H]21)C3(C)C [Docetaxel (Taxotere)] | -5.6 ± 0.34 | -5.35 ± 6.5 | -4.33 | -8.76 | -4.01 | -6.42
C[C@@H]1CC(=O)NN=C1c1ccc(NN=C(C#N)C#N)cc1 [Levosimendan] | -0.182 ± 0.23 | 0.119 ± 0.61 | 1.2 | 0.796 | 2.02 | 0.377
CCCCCCCCCCCCCCCC(=O)O[C@@H]1[C@@H](O)[C@@H](O)[C@@H]([C@H](NC(=O)[C@@H]2C[C@@H](CCC)CN2C)[C@H](C)Cl)O[C@@H]1SC [Clindamycin palmitate HCl] | -0.595 ± 0.025 | -0.035 ± 0.23 | -1.22 | -0.476 | -0.903 | 0.187
CC[C@H]1OC(=O)[C@H](C)[C@@H](O[C@H]2C[C@@](C)(OC)[C@@H](O)[C@H](C)O2)[C@H](C)[C@@H](O[C@@H]2O[C@H](C)C[C@H](N(C)C)[C@H]2O)[C@](C)(O)C[C@@H](C)CN(C)[C@H](C)[C@@H](O)[C@]1(C)O [Azithromycin Dihydrate] | -0.322 ± 0.68 | 0.647 ± 1.4 | -0.139 | 0.913 | -0.613 | 0.577
CCCN1CCCC[C@H]1C(=O)Nc1c(C)cccc1C [Ropivacaine HCl] | -0.905 ± 0.27 | -0.487 ± 0.64 | -1.4 | -0.161 | -0.458 | -1.98
C=C1CC[C@H](O)C/C1=C/C=C1\CCC[C@]2(C)[C@@H]([C@H](C)CCCC(C)(C)O)CC[C@@H]12 [Calcifediol] | -1.54 ± 0.14 | -1.66 ± 0.92 | -1.79 | -2.59 | -1 | -3.17
O=NN(CCCl)C(=O)NC1CCCCC1 [Lomustine (CeeNU)] | -0.286 ± 0.51 | 0.0483 ± 0.38 | 0.455 | -0.339 | 0.488 | 0.437
CC(=O)OCC(=O)[C@@]1(O)[C@H](C)C[C@H]2[C@@H]3CCC4=CC(=O)C=C[C@]4(C)[C@@]3(F)[C@@H](O)C[C@@]21C [Dexamethasone acetate] | 2.29 ± 1.5 | -0.392 ± 1.6 | 1.34 | 1.8 | 1.54 | -2.59
Nc1ccc(C(=O)NCC(=O)O)cc1 [Sodium 4-aminohippurate Hydrate] | 0.0362 ± 0.43 | -0.581 ± 1.4 | 0.392 | -0.701 | -1.54 | -0.262
COc1cc(C(=O)NC2CCCNC2)cc(OC)c1OC (stereo not drawn) [Troxipide] | 0.503 ± 0.96 | 1.13 ± 0.82 | 0.438 | 0.265 | 0.427 | -0.0538
CC[C@]1(O)C[C@@H]2CN(CCc3c([nH]c4ccccc34)[C@@](C(=O)OC)(c3cc4c(cc3OC)N(C)[C@H]3[C@@](O)(C(=O)OC)[C@H](OC(C)=O)[C@]5(CC)C=CCN6CC[C@]43[C@@H]65)C2)C1 [Vinblastine] | 0.156 ± 0.13 | -2.48 ± 1.9 | 0.445 | -0.97 | -0.00901 | -0.0314
OC[C@H]1O[C@H](O[C@]2(CCl)O[C@H](CCl)[C@@H](O)[C@@H]2O)[C@H](O)[C@@H](O)[C@H]1Cl [Sucralose] | -0.0476 ± 0.24 | -0.237 ± 0.057 | -0.854 | -0.307 | 0.652 | -0.446
Nc1c2ccccc2nc2ccccc12 [9-Aminoacridine] | -8.56 ± 1.1 | -7.95 ± 12 | -6.33 | -11.4 | -3.59 | -11.4
CC(C)C[C@H](NC(=O)[C@H](Cc1ccccc1)NC(=O)c1cnccn1)B(O)O [Bortezomib (Velcade)] | -10.2 ± 0.76 | -12.5 ± 9.9 | -9.67 | -15.3 | -10.9 | -17.5
CNC1CC(N)C(O)C(OC2OC(CO)C(O)C3OC4(OC(C(N)CO)C(O)C(O)C4O)OC23)C1O (stereo not drawn) [Hygromycin B] | -1.34 ± 0.43 | -1.82 ± 0.53 | 0.564 | -1.47 | -1.1 | -0.431
CCOC(=O)c1c(CSc2ccccc2)n(C)c2cc(Br)c(O)c(CN(C)C)c12 [Arbidol HCl] | -0.414 ± 0.48 | -0.567 ± 0.25 | 0.532 | -1.06 | -0.257 | 0.178
C=C(C)[C@@H]1[C@H]2OC(=O)[C@@H]1[C@]1(O)C[C@H]3O[C@]34C(=O)O[C@H]2[C@]14C [Picrotoxinin] | 0.0341 ± 0.35 | -0.0758 ± 0.43 | 0.0412 | -0.674 | 0.359 | 0.191
O=C(O)Cc1ccccc1Nc1c(Cl)cccc1Cl [Diclofenac Potassium] | 1.35 ± 0.021 | 1.29 ± 0.76 | 2.1 | 1.35 | 0.747 | 0.0698
C[C@H](NC(=O)Cc1cc(F)cc(F)c1)C(=O)N[C@H](C(=O)OC(C)(C)C)c1ccccc1 | -0.685 ± 0.096 | -0.624 ± 0.51 | -0.155 | 0.36 | -0.755 | -0.456
Clc1ccc2nsnc2c1NC1=NCCN1 [Tizanidine HCl] | 2.4 ± 2.4 | 1.49 ± 0.31 | 1.63 | -0.338 | 1.09 | 0.931
NC[C@H](O)c1ccc(O)c(O)c1 [Noradrenaline bitartrate monohydrate (Levophed)] | -0.277 ± 0.57 | 0.208 ± 0.093 | -0.449 | -1.22 | -0.212 | 1.11
O.O=[Si]=O.O=[Si]=O.O=[Si]=O.O=[Si]=O.[O]=[Mg].[O]=[Mg].[O]=[Mg] | 0.435 ± 0.75 | 0.167 ± 1.4 | 0.076 | 0.888 | 0.044 | 0.0224

SMILES | log2 surviving fraction (OVCAR4; [1]) | log2 surviving fraction (OVCAR4; [2]) | log2 surviving fraction (Ov4Carbo; [1]) | log2 surviving fraction (Ov4Carbo; [2]) | log2 surviving fraction (Ov4Cis; [1]) | log2 surviving fraction (Ov4Cis; [2])
CCC(C)(C)c1ccc(CC(C)CN2C[C@@H](C)O[C@@H](C)C2)cc1 (stereo partly drawn) [Amorolfine Hydrochloride] | -0.0239 ± 0.85 | 0.324 ± 0.047 | -0.0337 | -0.185 | 0.32 | -0.316
COC(=O)[C@H](Cc1ccccc1)NC(=O)[C@@H](N)CC(=O)O [Aspartame] | -0.143 ± 0.87 | -0.0139 ± 0.85 | -0.439 | 0.0988 | 0.0597 | 0.00812
C=CCOc1ccccc1OCC(O)CNC(C)C (stereo not drawn) [Oxprenolol HCl] | 0.0272 ± 0.1 | -1.46 ± 2.2 | 0.866 | -0.71 | 0.547 | -0.353
Cc1ncc([N+](=O)[O-])n1CC(O)CCl (stereo not drawn) [Ornidazole] | 0.298 ± 0.64 | 0.756 ± 0.41 | 1.35 | 0.676 | 0.664 | -0.464
CCOC(=O)[C@H](CCc1ccccc1)N[C@H]1CS[C@H](c2cccs2)CN(CC(=O)O)C1=O [Temocapril HCl] | 0.0679 ± 0.31 | 0.426 ± 0.17 | 0.325 | -0.61 | 0.0537 | 0.0834
C=CC[N+]1([C@H]2C[C@H]3[C@@H]4CC[C@H]5C[C@H](O)[C@@H](N6CCOCC6)C[C@]5(C)[C@H]4CC[C@]3(C)[C@H]2OC(C)=O)CCCC1 [Rocuronium bromide] | -0.356 ± 0.65 | -0.277 ± 0.25 | 1.62 | 1.43 | -0.726 | -0.352
CC(C)(S)[C@@H](N)C(=O)O [Penicillamine (Cuprimine)] | 0.394 ± 0.17 | 0.626 ± 0.12 | 0.462 | -1.35 | 0.399 | 0.223
CC(CN(C)C)CN1c2ccccc2CCc2ccccc21 (stereo not drawn) [Trimipramine Maleate] | -0.985 ± 0.91 | -1.01 ± 0.53 | -1.13 | -1.38 | -0.858 | -1.32
COC(=O)C1=C(C)NC(C)=C(C(=O)OC)C1c1ccccc1[N+](=O)[O-] [Nifedipine (Adalat)] | -0.0633 ± 0.1 | 0.695 ± 0.34 | -0.516 | 0.572 | 0.826 | 0.493
CCCCNc1cc(C(=O)O)cc(S(N)(=O)=O)c1Oc1ccccc1 [Bumetanide] | 1.18 ± 0.11 | 1.42 ± 0.41 | 1.87 | 1.51 | -0.0116 | 0.494
C[C@H]1O[C@@H](n2cc(F)c(=O)[nH]c2=O)[C@H](O)[C@@H]1O [Doxifluridine] | -0.303 ± 0.64 | 0.00648 ± 0.87 | -0.291 | -0.0347 | -0.575 | -0.553
CC(C)[C@H]1CC[C@H](C(=O)N[C@H](Cc2ccccc2)C(=O)O)CC1 [Nateglinide (Starlix)] | 0.544 ± 0.12 | 0.37 ± 0.16 | 1.75 | 0.85 | -0.0416 | 0.0791
COc1cc2c(cc1OC)C(=O)C(CC1CCN(Cc3ccccc3)CC1)C2 (stereo not drawn) [Donepezil HCl (Aricept)] | 0.108 ± 0.12 | -0.0493 ± 0.12 | -0.273 | 0.724 | -0.453 | 0.294
CCCNC(=O)NS(=O)(=O)c1ccc(Cl)cc1 [Chlorpropamide] | 0.117 ± 0.16 | -0.212 ± 0.99 | 1.18 | 0.584 | 0.504 | 0.256
CCn1cc(C(=O)O)c(=O)c2cc(F)c(N3CCNCC3)nc21 [Enoxacin (Penetrex)] | -0.119 ± 0.7 | -0.169 ± 0.2 | -0.533 | -0.114 | -0.0401 | -0.604
Cc1ccccc1C(=O)Nc1ccc(C(=O)N2CCCC(O)c3cc(Cl)ccc32)c(C)c1 (stereo not drawn) | -1.07 ± 0.17 | -0.823 ± 0.19 | -2.11 | -0.452 | -1.38 | -2.77
CC(=O)NC[C@H]1CN(c2ccc(N3CCOCC3)c(F)c2)C(=O)O1 [Linezolid (Zyvox)] | 2.3 ± 2.7 | 0.0939 ± 0.85 | 2.19 | -1.22 | -0.0432 | 0.102
N[C@@H]1CCCCN(c2c(F)cc3c(=O)c(C(=O)O)cn(C4CC4)c3c2Cl)C1 [Besifloxacin HCl (Besivance)] | -0.782 ± 2.1 | 0.0725 ± 1.7 | -1.58 | 0.274 | 0.524 | -1.87
Cc1ccc(S(=O)(=O)NC(=O)NN2CCCCCC2)cc1 [Tolazamide] | 0.479 ± 0.15 | 0.325 ± 0.63 | 0.298 | 0.112 | 0.0459 | 0.305
CC(C)NC[C@H](O)COc1ccc(CCOCC2CC2)cc1 [Levobetaxolol HCl] | -0.475 ± 0.75 | 0.868 ± 1.6 | 0.217 | -0.58 | -0.236 | -0.782
O=C1Cc2cc(CCN3CCN(c4nsc5ccccc45)CC3)c(Cl)cc2N1 [Ziprasidone hydrochloride] | 0.542 ± 0.36 | 0.296 ± 0.3 | 0.185 | 1.01 | -0.263 | 0.162
